The text below walks through data of the supplement of paper PMC7125110.

To fix the notation:
B1: glmS ribozyme (parent)
chain: AUAAAAGCGCCAGAACUACAGAAAUGUAGUUGACGAGGAGGAGGUUUAUCGAAUUUUCGGCGGAUGCCUCCAAA

Details in all cases: with glucosamine-6-phosphate
In series [1] the parent is B1. Description: self-cleavage kobs at 640 uM GlcN6P; higher = faster cleavage; RNA array. Put shortly: (§1)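 kcat and KM were obtained from weighted Michaelis–Menten fits across concentrations of kobs values. Those came from one- or two-exponential decay fits to per-tile medians normalised to baseline and to non-cleaving reference variants. The variants were barcoded ribozymes transcribed in situ by E. coli RNA polymerase on sequenced MiSeq chips and tracked through a hybridised Cy3 probe at 37 °C, with 40 μM to 10 mM glucosamine-6-phosphate in HEPES/KCl/Mg(OAc)2 buffer flowed in.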

In series [2] the parent is B1. Description: self-cleavage kobs at 160 uM GlcN6P; higher = faster cleavage; RNA array. In outline: as §1
The variants in series [3] derive from B1. In words: self-cleavage kobs at 2500 uM GlcN6P; higher = faster cleavage; RNA array. Put shortly:
as §1

Series [4] covers variants of B1. Description: self-cleavage kobs at 10000 uM GlcN6P; higher = faster cleavage; RNA array. In outline:
as §1

± gives the standard error. Variants at the background level are over-represented here. A value given as a limit tells only on which side of the number the result lay.

Regarding C11U G32A, the “self-cleavage kobs at 640 uM GlcN6P” value in the series with glucosamine-6-phosphate [1] was 0.00014 ± 3.1e-05 s⁻¹. Besides, the “self-cleavage kobs at 160 uM GlcN6P” value with glucosamine-6-phosphate [2] is 5.04e-05 ± 2.1e-05 s⁻¹. Also, the “self-cleavage kobs at 2500 uM GlcN6P” value in the series with glucosamine-6-phosphate [3] worked out at 0.000239 ± 5.9e-05 s⁻¹. The “self-cleavage kobs at 10000 uM GlcN6P” value in the series with glucosamine-6-phosphate [4] was 0.000404 ± 4.4e-05 s⁻¹. Turning to A12U U46C C61G G62C, the “self-cleavage kobs at 640 uM GlcN6P” value with glucosamine-6-phosphate [1] is less than 1e-05 s⁻¹. Take A12C C34G G41U C58U A64C: the “self-cleavage kobs at 640 uM GlcN6P” value with glucosamine-6-phosphate [1] is less than 1e-05 s⁻¹. The “self-cleavage kobs at 2500 uM GlcN6P” value in the series with glucosamine-6-phosphate [3] is less than 1e-05 s⁻¹. Take A12U C16A C34A A53U C67U: in the series with glucosamine-6-phosphate [1], the “self-cleavage kobs at 640 uM GlcN6P” value is less than 1e-05 s⁻¹. In the series with glucosamine-6-phosphate [3], the “self-cleavage kobs at 2500 uM GlcN6P” value is less than 1e-05 s⁻¹. As for A12U G60A, in the series with glucosamine-6-phosphate [1], the “self-cleavage kobs at 640 uM GlcN6P” value was determined as 2.88e-05 ± 1.4e-05 s⁻¹. In the series with glucosamine-6-phosphate [3], the “self-cleavage kobs at 2500 uM GlcN6P” value turned out to be 4.12e-05 ± 1e-05 s⁻¹. Further, in the series with glucosamine-6-phosphate [4], the “self-cleavage kobs at 10000 uM GlcN6P” value amounted to 7.02e-05 ± 8.4e-06 s⁻¹.

Regarding A12C G44A A53U, in the series with glucosamine-6-phosphate [1], the “self-cleavage kobs at 640 uM GlcN6P” value is 5.92e-05 ± 1.6e-05 s⁻¹. Further, the “self-cleavage kobs at 2500 uM GlcN6P” value with glucosamine-6-phosphate [3] was 0.000169 ± 4.4e-05 s⁻¹. As for A14C G35A, the “self-cleavage kobs at 640 uM GlcN6P” value with glucosamine-6-phosphate [1] was less than 1e-05 s⁻¹. In the series with glucosamine-6-phosphate [2], the “self-cleavage kobs at 160 uM GlcN6P” value is less than 1e-05 s⁻¹. Also, the “self-cleavage kobs at 2500 uM GlcN6P” value in the series with glucosamine-6-phosphate [3] was less than 1e-05 s⁻¹. For the same variant, in the series with glucosamine-6-phosphate [4], the “self-cleavage kobs at 10000 uM GlcN6P” value is less than 1e-05 s⁻¹. Turning to A12G G38U A42C C50A, in the series with glucosamine-6-phosphate [1], the “self-cleavage kobs at 640 uM GlcN6P” value is less than 1e-05 s⁻¹.

For the variant G13U A14U G44C A52G C58G, in the series with glucosamine-6-phosphate [1], the “self-cleavage kobs at 640 uM GlcN6P” value is less than 1e-05 s⁻¹. Turning to A14C U65C C67U, the “self-cleavage kobs at 640 uM GlcN6P” value with glucosamine-6-phosphate [1] is less than 1e-05 s⁻¹. As for A12U U49G C58A, the “self-cleavage kobs at 640 uM GlcN6P” value with glucosamine-6-phosphate [1] was less than 1e-05 s⁻¹.

With G13A A14C A42G C70U, in the series with glucosamine-6-phosphate [1], the “self-cleavage kobs at 640 uM GlcN6P” value was 4.53e-05 ± 1.8e-05 s⁻¹. Besides, in the series with glucosamine-6-phosphate [3], the “self-cleavage kobs at 2500 uM GlcN6P” value stood at 9.61e-05 ± 1.4e-05 s⁻¹. Consider A14C G32C U56C G59U A64G, for which, in the series with glucosamine-6-phosphate [1], the “self-cleavage kobs at 640 uM GlcN6P” value is less than 1e-05 s⁻¹. In the series with glucosamine-6-phosphate [2], the “self-cleavage kobs at 160 uM GlcN6P” value was less than 1e-05 s⁻¹. In the case of A12C A33G C50A A53C, in the series with glucosamine-6-phosphate [1], the “self-cleavage kobs at 640 uM GlcN6P” value is less than 1e-05 s⁻¹.

In the case of G13U A64G C71G, the “self-cleavage kobs at 640 uM GlcN6P” value with glucosamine-6-phosphate [1] was less than 1e-05 s⁻¹. Still for that read-out and setting: then A14C G59C C71A, with less than 1e-05 s⁻¹.

Regarding A14G A33C U55G G63A C68A, the “self-cleavage kobs at 640 uM GlcN6P” value with glucosamine-6-phosphate [1] is less than 1e-05 s⁻¹. The “self-cleavage kobs at 10000 uM GlcN6P” value with glucosamine-6-phosphate [4] is less than 1e-05 s⁻¹. Consider A12U A42U G51A, for which the “self-cleavage kobs at 640 uM GlcN6P” value with glucosamine-6-phosphate [1] was less than 1e-05 s⁻¹. In addition, the “self-cleavage kobs at 2500 uM GlcN6P” value in the series with glucosamine-6-phosphate [3] was less than 1e-05 s⁻¹. A12C A42U A53U U57G: in the series with glucosamine-6-phosphate [1], the “self-cleavage kobs at 640 uM GlcN6P” value was less than 1e-05 s⁻¹. Take A12C A52U C71U: the “self-cleavage kobs at 640 uM GlcN6P” value with glucosamine-6-phosphate [1] is 4.93e-05 ± 1.4e-05 s⁻¹. Moreover, the “self-cleavage kobs at 2500 uM GlcN6P” value with glucosamine-6-phosphate [3] turned out to be 0.000116 ± 2.4e-05 s⁻¹.

Take A12C G60U G63U C70U: in the series with glucosamine-6-phosphate [1], the “self-cleavage kobs at 640 uM GlcN6P” value was less than 1e-05 s⁻¹. As for G13U G41C A42U U65C, the “self-cleavage kobs at 640 uM GlcN6P” value with glucosamine-6-phosphate [1] was less than 1e-05 s⁻¹. For the same variant, the “self-cleavage kobs at 160 uM GlcN6P” value with glucosamine-6-phosphate [2] was less than 1e-05 s⁻¹. In addition, in the series with glucosamine-6-phosphate [3], the “self-cleavage kobs at 2500 uM GlcN6P” value was less than 1e-05 s⁻¹. For the variant A14C A42C A48C G66U, the “self-cleavage kobs at 640 uM GlcN6P” value in the series with glucosamine-6-phosphate [1] is less than 1e-05 s⁻¹. Moreover, in the series with glucosamine-6-phosphate [3], the “self-cleavage kobs at 2500 uM GlcN6P” value is less than 1e-05 s⁻¹. Turning to A12U A39C A42U G60A, the “self-cleavage kobs at 640 uM GlcN6P” value with glucosamine-6-phosphate [1] was less than 1e-05 s⁻¹.

As to A14C A23C G43C, the “self-cleavage kobs at 640 uM GlcN6P” value with glucosamine-6-phosphate [1] is less than 1e-05 s⁻¹. Moreover, the “self-cleavage kobs at 160 uM GlcN6P” value with glucosamine-6-phosphate [2] is less than 1e-05 s⁻¹. In the series with glucosamine-6-phosphate [3], the “self-cleavage kobs at 2500 uM GlcN6P” value was less than 1e-05 s⁻¹. A12U G41C G51A: in the series with glucosamine-6-phosphate [1], the “self-cleavage kobs at 640 uM GlcN6P” value was less than 1e-05 s⁻¹. Besides, the “self-cleavage kobs at 2500 uM GlcN6P” value with glucosamine-6-phosphate [3] was less than 1e-05 s⁻¹. Moreover, the “self-cleavage kobs at 10000 uM GlcN6P” value with glucosamine-6-phosphate [4] was less than 1e-05 s⁻¹. Consider A12G G38U U57C, for which the “self-cleavage kobs at 640 uM GlcN6P” value with glucosamine-6-phosphate [1] is less than 1e-05 s⁻¹. The “self-cleavage kobs at 160 uM GlcN6P” value with glucosamine-6-phosphate [2] is less than 1e-05 s⁻¹. In addition, in the series with glucosamine-6-phosphate [4], the “self-cleavage kobs at 10000 uM GlcN6P” value was less than 1e-05 s⁻¹. Turning to A12G A15G G60U C70U C71U, in the series with glucosamine-6-phosphate [1], the “self-cleavage kobs at 640 uM GlcN6P” value was less than 1e-05 s⁻¹. As to A12U G38A U47A C58G, in the series with glucosamine-6-phosphate [1], the “self-cleavage kobs at 640 uM GlcN6P” value is less than 1e-05 s⁻¹. Moreover, in the series with glucosamine-6-phosphate [3], the “self-cleavage kobs at 2500 uM GlcN6P” value is less than 1e-05 s⁻¹. Consider A14C G32A G40A A52G U65G C70A, for which the “self-cleavage kobs at 640 uM GlcN6P” value in the series with glucosamine-6-phosphate [1] was less than 1e-05 s⁻¹. As to G13A A36U G38C, the “self-cleavage kobs at 640 uM GlcN6P” value with glucosamine-6-phosphate [1] is less than 1e-05 s⁻¹.
